Laboratory results as given in article PMC4336329 (PLoS ONE, 2015).
Hit rate of the full screen: of about 310,000 compounds, about 14,000 (4.5%) showed an effect of 50% or more. Effects have a minus sign here. The list shows a part of the results.

Target: human ether-à-go-go-related gene (hERG) potassium channel (human, UniProt Q12809)
Assay: primary screen, population patch clamp on CHO cells stably expressing hERG
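Further: peak tail current of the secondary pulse compared with the same well before compound.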

human ether-à-go-go-related gene (hERG) potassium channel, sequence (Q12809 whole entry, looked up): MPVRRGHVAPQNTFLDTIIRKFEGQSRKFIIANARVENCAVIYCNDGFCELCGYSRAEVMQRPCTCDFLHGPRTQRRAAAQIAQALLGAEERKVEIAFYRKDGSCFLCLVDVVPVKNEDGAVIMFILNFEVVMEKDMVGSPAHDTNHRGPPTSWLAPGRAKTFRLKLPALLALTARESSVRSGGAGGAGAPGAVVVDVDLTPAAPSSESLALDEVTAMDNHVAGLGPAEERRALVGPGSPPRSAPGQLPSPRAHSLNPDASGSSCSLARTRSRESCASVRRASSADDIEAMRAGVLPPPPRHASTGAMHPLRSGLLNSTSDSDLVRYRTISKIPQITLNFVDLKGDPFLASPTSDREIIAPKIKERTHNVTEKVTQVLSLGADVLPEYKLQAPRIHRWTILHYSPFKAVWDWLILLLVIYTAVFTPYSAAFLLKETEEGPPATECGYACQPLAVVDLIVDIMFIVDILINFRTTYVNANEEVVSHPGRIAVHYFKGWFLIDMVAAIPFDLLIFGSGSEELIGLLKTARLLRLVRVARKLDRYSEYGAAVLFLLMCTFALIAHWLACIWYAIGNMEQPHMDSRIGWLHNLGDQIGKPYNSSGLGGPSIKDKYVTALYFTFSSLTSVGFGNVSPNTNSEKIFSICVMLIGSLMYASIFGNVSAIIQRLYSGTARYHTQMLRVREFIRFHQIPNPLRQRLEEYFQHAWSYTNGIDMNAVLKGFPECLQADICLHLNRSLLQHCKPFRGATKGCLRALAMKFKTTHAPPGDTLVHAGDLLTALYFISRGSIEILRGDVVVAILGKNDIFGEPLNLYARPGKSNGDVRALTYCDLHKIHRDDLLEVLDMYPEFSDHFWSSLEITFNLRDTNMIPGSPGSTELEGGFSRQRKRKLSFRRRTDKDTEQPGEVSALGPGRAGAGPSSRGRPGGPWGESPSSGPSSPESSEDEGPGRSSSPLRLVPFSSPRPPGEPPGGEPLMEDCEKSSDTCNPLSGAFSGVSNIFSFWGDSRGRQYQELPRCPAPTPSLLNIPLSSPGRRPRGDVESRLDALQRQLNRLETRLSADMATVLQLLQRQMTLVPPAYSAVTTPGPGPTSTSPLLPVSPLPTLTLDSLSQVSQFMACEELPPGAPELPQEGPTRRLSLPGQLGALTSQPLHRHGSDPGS

SMILES	hERG current change (%, negative = inhibition) at 10uM
COCCOc1cc(COC)nc(-c2cccc(C)c2)n1	6.85%
CC(CN1CCN(C)CC1)OC(=O)c1cccc(Cl)c1.Cl (stereo not shown)	-10.6%
Cc1c(CN2CCc3c([nH]c4ccccc34)C2CC(C)C)cnn1C (stereo not shown)	-36%
O=C(C1CCCN(Cc2nc(-c3cccs3)no2)C1)N1CCOCC1 (stereo not shown)	9.96%
CC(C)CC(=O)Nc1nc2ccc(S(C)(=O)=O)cc2s1	2.14%
O=C1CN(C(=O)N[C@@H](Cc2ccccc2)C(=O)N[C@H](C(=O)O)c2ccccc2)c2ccccc2N1	18.4%
C=CCOc1ccc(/C=C/C(=O)OCC(=O)NCC(=O)Nc2c(C)cc(C)cc2C)cc1	4.82%
O=C(COC(=O)CCc1ccc(S(=O)(=O)N2CCOCC2)cc1)NCc1ccccc1	6.25%
COc1ccc(N2CCN(C(=O)C(=O)c3cn(CC(=O)N4CCCCCC4)c4ccccc34)CC2)cc1	-18.3%
CCn1c2c(c3cc(C(=O)O)ccc31)CCCC2=O	18.5%
CC(C)c1ccc(N(CC(=O)N2CCOCC2)S(C)(=O)=O)cc1	6.33%
C/C(N)=C(/C#N)C(=O)COc1ncnc2ccc(Br)cc12	3.99%
CCCC1=C/C(=C/c2ccc(-c3ccccc3OC)o2)C(=O)O1	-7.77%
Nc1c(C(=O)Nc2ccc(F)cc2)sc2nc(-c3ccco3)ccc12	-9.67%
Cc1cc(C(=O)NNC(=O)Cc2ccc(Cl)cc2)c(C)o1	-12.5%
CCc1ccc(C2CC(c3cccc(Cl)c3)n3nc(N)nc3N2)cc1 (stereo not shown)	-8.81%
C=CCn1c(=S)[nH]c2cc(C(=O)NCCc3ccc(S(N)(=O)=O)cc3)ccc2c1=O	-0.634%
Cc1scc(C(=O)N/N=C/c2ccsc2)c1C	1.93%
CCOC(=O)N1CCN(C(=O)COc2cc(=O)n(CC)c3ccccc23)CC1	-17%
O=C(Cn1cc([N+](=O)[O-])cn1)NCc1ccccc1Cl	6.14%
O=C(C1CCCN1S(=O)(=O)c1cccc2nsnc12)N1CCN(c2ccc(F)cc2)CC1 (stereo not shown)	-69.3%
Cc1cc(NC(=O)COC(=O)CC2CCCC2)c([N+](=O)[O-])cc1C	9.34%
CCOc1ccc(C(=O)NCC2(c3ccccc3)CCOCC2)cc1	10.8%
COc1cc(CN2CCCC(C(=O)c3ccccc3SC)C2)cc(OC)c1 (stereo not shown)	-74.4%
CCOC(=O)CC1C(=O)NCCN1C(=O)c1ccc(Cl)cc1Cl (stereo not shown)	0.912%
COc1ccc(S(=O)(=O)N2CCN(c3cc(-c4ccccc4)nc4ncnn34)CC2)cc1	-53.3%
Cc1cc(=O)n2nc(N3CCC(C(=O)N4CCN(Cc5ccccc5)CC4)CC3)sc2n1	-19.3%
c1ccc(-c2csc(N3CCc4ccccc4C3)n2)cc1	3.84%

SMILES	hERG current change (%, negative = inhibition) at 10uM
O=[N+]([O-])c1ccc(O)c(C(C#Cc2ccccc2)N2CCOCC2)c1 (stereo not shown)	-10.1%
Cc1csc(NC(=O)Cc2ccc(Cl)cc2)n1	-2.32%
Cc1ccc(N(C)S(=O)(=O)c2cccc(C(=O)NC3=NCCS3)c2)cc1	-7.76%
C=CCn1c(SCC(=O)c2ccc(F)cc2)nnc1-c1ccc2c(c1)OCO2	-30.4%
C=CCn1c(O)c(N=NC(=O)CNC(=O)/C=C/c2ccc(OC)cc2)c2ccccc21	-15.7%
O=C(O)c1ccc[nH]c1=S	10.3%
CCN(C(=O)COC(=O)/C=C/c1nc2ccccc2s1)C1CCS(=O)(=O)C1 (stereo not shown)	7.73%
Cc1cc(NC(=O)CN2C(=O)CCSc3ccccc32)no1	10.1%
O=C(O)CSC(=S)N1CCCC1	-1.47%
Cc1cccc(Nc2nc(N)nc(CCl)n2)c1	-0.698%
Cc1ncc([N+](=O)[O-])n1CCOC(=O)NC(NCc1cccnc1)C(Cl)(Cl)Cl (stereo not shown)	1.91%
COc1cccc(N2CCN(Cc3nc(N)nc(Nc4ccccc4)n3)CC2)c1	-68%
CCOC(=O)N1CCN(C(=O)C2CCN(S(=O)(=O)c3ccc(F)cc3)CC2)CC1	-19.3%
CC(=O)O[C@H]1CC[C@@]2(C)[C@@H](CC[C@H]3[C@@H]4CC[C@H](C(C)O)[C@@]4(C)CC(=O)[C@@H]32)C1 (stereo partly shown)	-16.9%
Cn1c(N)c(C(=O)CSc2nnc(C3CC3)n2Cc2ccccc2)c(=O)[nH]c1=O	10.4%
CC(C)OC(=O)COc1cc(O)c2c(=O)cc(-c3ccccc3)oc2c1	11.3%
C=C/C(C)=C/C[C@H]1C(=C)CCC2[C@](C)(C(=O)O)CCC[C@@]21C (stereo partly shown)	2.32%
CC(C)c1ccc(NC(=O)C(c2ccc3c(c2)OCO3)N2CCC3(CC2)OCCO3)cc1 (stereo not shown)	-14.8%
Cc1cc([N+](=O)[O-])nn1CCCC(=O)N1CCN(c2ccc(F)cc2)CC1	-53.2%
O=C(CNC(=O)c1nc[nH]c1C(=O)N1CC[NH2+]CC1)OCc1ccccc1.[Cl-]	6.22%
CCCN1C2CCCC1CC(NC(=O)c1cc(OC)c(OC)c(OC)c1)C2 (stereo not shown)	6.39%
COc1ccc(NC(=O)CSc2nc3ccccc3cc2Cc2ccccc2)cc1	7.89%
O=C(CSc1ccccc1)NCCc1ccccc1	12%
Cc1ccc(N2CCN(c3ccc(C)cc3)C2c2ccncc2)cc1	-2.05%
Cc1ccc(S(=O)(=O)N2[C@@H](c3ccccc3)C(C(=O)O)=CC[C@H]2c2cccs2)cc1	17.9%
COc1cc([N+](=O)[O-])ccc1NC(=O)Cc1ccc(C)cc1	21.6%
O=C(NCCc1ccccc1Cl)C1CCN(S(=O)(=O)c2cccs2)CC1	-34.8%
